Laboratory results taken from PMC10776578, “Epstein-Barr virus-driven B cell lymphoma mediated by a direct LMP1-TRAF6 complex” (Nature Communications, 2024).
These are yes or no findings as the source states them, for the method shown. For part of these data: Binding seen in cells or lysates may run through a third protein. Some results given as binding are weak or reduced against the parent protein; the word gives no strength. Where a sequence is shown, tags or fusion partners need not be part of it.

Legend:
Flag-TRAF6 K469A (human) = target: T1, Flag-TRAF6 K469A (human) (UniProt Q9Y4K3); experiment: co-IP; HEK293 co-transfected with Flag-TRAF6 and HA-LMP1; NP40-lysis buffer; IP with α-Flag antibody 6F7, coprecipitated HA-LMP1 detected by α-HA immunoblot
T1 sequence: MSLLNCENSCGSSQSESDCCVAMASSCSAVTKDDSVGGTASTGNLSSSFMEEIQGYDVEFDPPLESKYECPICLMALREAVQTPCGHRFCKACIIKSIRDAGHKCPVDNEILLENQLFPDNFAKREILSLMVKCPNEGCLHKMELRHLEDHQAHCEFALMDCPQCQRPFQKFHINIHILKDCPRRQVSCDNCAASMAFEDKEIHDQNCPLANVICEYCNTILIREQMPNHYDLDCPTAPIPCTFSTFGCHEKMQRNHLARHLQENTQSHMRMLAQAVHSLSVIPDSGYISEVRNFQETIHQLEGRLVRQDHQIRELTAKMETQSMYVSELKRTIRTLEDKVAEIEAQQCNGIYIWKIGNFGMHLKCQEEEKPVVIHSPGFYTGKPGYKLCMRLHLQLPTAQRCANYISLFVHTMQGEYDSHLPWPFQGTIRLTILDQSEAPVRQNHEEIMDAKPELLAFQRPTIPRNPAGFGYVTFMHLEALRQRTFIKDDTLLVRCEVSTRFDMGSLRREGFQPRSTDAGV

Flag-TRAF6 R392A (human) = target: T2, Flag-TRAF6 R392A (human) (UniProt Q9Y4K3); experiment: as above
T2 sequence: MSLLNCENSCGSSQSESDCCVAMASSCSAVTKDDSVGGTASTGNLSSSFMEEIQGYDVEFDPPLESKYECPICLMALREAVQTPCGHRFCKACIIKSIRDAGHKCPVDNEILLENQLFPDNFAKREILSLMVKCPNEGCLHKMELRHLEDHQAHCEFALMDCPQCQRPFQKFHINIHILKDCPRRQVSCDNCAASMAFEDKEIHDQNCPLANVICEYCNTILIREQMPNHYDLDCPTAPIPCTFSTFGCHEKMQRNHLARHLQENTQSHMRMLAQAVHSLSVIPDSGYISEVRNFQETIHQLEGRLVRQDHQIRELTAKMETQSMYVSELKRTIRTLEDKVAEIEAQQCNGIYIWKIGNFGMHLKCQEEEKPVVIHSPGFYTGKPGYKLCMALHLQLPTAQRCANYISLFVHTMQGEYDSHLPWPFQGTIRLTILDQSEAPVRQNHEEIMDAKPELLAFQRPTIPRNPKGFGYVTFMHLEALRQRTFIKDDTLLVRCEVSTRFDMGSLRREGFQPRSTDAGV

Flag-TRAF6 Y473A (human) = target: T3, Flag-TRAF6 Y473A (human) (UniProt Q9Y4K3); experiment: as above
T3 sequence: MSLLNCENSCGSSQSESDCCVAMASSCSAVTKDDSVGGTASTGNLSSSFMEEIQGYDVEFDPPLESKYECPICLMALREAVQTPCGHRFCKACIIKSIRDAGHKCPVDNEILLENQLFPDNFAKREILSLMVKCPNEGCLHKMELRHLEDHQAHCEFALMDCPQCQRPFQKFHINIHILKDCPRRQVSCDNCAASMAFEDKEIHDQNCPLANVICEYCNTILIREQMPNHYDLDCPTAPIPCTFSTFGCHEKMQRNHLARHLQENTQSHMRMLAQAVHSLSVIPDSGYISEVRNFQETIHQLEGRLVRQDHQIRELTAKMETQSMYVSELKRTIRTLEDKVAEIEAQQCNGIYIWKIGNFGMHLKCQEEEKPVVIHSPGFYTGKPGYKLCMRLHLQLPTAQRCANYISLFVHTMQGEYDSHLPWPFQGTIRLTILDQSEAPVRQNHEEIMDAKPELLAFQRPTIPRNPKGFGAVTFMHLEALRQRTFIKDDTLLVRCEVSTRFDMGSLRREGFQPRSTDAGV

Flag-TRAF6 F471A (human) = target: T4, Flag-TRAF6 F471A (human) (UniProt Q9Y4K3); experiment: as above
T4 sequence: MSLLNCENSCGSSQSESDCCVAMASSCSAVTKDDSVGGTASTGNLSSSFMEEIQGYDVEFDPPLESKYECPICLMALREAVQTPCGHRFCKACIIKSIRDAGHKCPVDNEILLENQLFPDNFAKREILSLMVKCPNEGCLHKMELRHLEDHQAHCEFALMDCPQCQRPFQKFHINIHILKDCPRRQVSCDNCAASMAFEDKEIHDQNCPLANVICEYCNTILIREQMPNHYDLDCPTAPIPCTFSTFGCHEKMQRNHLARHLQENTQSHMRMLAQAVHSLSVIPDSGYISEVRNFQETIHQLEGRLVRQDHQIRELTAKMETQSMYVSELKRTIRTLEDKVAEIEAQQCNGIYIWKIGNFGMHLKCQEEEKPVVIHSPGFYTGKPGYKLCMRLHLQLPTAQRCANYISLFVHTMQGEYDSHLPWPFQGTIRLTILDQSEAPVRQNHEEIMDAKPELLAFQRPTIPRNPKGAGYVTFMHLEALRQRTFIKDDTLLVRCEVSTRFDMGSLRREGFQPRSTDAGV

[1] = target: GST-LMP1_(181-386) A204xAxA (Epstein-Barr virus) (UniProt P03230); experiment: pull-down; both purified
[2] = target: GST-LMP1_(181-386) (Epstein-Barr virus) (UniProt P03230); experiment: pull-down; both purified
[3] = target: GST-LMP1_(181-386) (Epstein-Barr virus) (UniProt P03230); experiment: AlphaScreen or HTRF; AlphaScreen PPI assay in competition: GST-LMP1 or GST-CD40 with His-TRAF6 (dose-response of TRAF6 inhibitor or control peptide, 4-parameter fit) or GST-LMP1 with His-TRAF2 (30 µM peptide); both purified
[4] = target: LMP1-derived CTAR2 peptide 11 (amino acids 357-386, 30mer) (Epstein-Barr virus) (UniProt P03230); experiment: peptide or protein array; peptides spot-synthesised on cellulose membranes in duplicate, incubated with 10 µg per mL purified His-TRAF6 or His-TRAF2 in PBST with 5% milk powder for 4 h at RT; detection by TRAF-specific antibodies; both purified
[5] = target: LMP1-derived CTAR2 peptide 10 (371-386, P379xQxS to AxAxA) (Epstein-Barr virus) (UniProt P03230); experiment: as above
[6] = target: LMP1-derived CTAR2 peptide 12 (357-386, P379xQxS to AxAxA) (Epstein-Barr virus) (UniProt P03230); experiment: as above
[7] = target: LMP1-derived CTAR2 peptide 8 (amino acids 371-386, 16mer) (Epstein-Barr virus) (UniProt P03230); experiment: as above
[8] = target: LMP1-derived CTAR2 peptide 9 (371-386, Y384 and Y385 to AA) (Epstein-Barr virus) (UniProt P03230); experiment: as above

How did the binding (Flag-TRAF6 K469A (human)) turn out when HA-LMP1 wild-type (from UniProt P03230) was run?
The binding was “binds”.

What about the binding (Flag-TRAF6 R392A (human)) of the same molecule?
The binding was “no binding”.

And the binding (Flag-TRAF6 Y473A (human))?
The binding was “no binding”.

What about the binding (Flag-TRAF6 F471A (human)) of the same molecule?
Its binding is “no binding”.

B1: His-TRAF2_(311-501) (domain or fragment, UniProt Q12933 311-501)
chain: QDKIEALSSKVQQLERSIGLKDLAMADLEQKVLEMEASTYDGVFIWKISDFARKRQEAVAGRIPAIFSPAFYTSRYGYKMCLRIYLNGDGTGRGTHLSLFFVVMKGPNDALLRWPFNQKVTLMLLDQNNREHVIDAFRPDVTSSSFQRPVNDMNIASGCPLFCPVSKMEAKNSYVRDDAIFIKAIVDLTGL
What does the source list for B1?
binding [1]: no binding; binding [2]: binds; binding [3]: binds; binding [4]: no binding (tested: 10 µg per mL); binding [5]: no binding (tested: 10 µg per mL); binding [6]: no binding (tested: 10 µg per mL); binding [7]: no binding (tested: 10 µg per mL); binding [8]: no binding (tested: 10 µg per mL)
